In PubChem BioAssay (Tox21):
Several values for one entry are separate records, joined by “and”; a condition that tells them apart may be missing. Equal values may be shown once. Inconclusive means that the source gave no clear call. Such entries were picked first, then a sample of the others. No potency is given beside an inconclusive call; the fits are too rough. Activity calls are given as the source filed them. Calls come from the whole dose curve; as a rule, active = well fitted cell-killing curve with a large enough effect in the repeat runs; inconclusive = weak or mixed curves, or effect the other way; inactive = flat fitted curve, though single readings scatter.

Experiment: Caspase-3/7 induction in HepG2 cells by small molecules, qHTS cell viability counter screen (AID 1346981); note: nearly all actives have a fitted effect of over 30% in size
Conditions: CellTiter-Fluor fluorescence, 17 h; series mostly up to 92.4 µM
Summary of the method: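 Cell viability is measured as a cytotoxicity counter screen alongside the Caspase-Glo 3/7 readout in identical wells. Wild-type HepG2 cells are treated with test compounds for 16 hr at 37 C before CellTiter-Fluor addition and a 1-hr incubation.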
Potency is the fitted concentration of half-maximal effect; tags give direction and shape of the fitted curve.

| SMILES | Potency |
| --- | --- |
| FC(F)(F)c1ccc(Cl)cc1 | inactive |
| Oc1cccc2cccnc12 | inconclusive [cytotoxic, full curve] |
| Nc1ccc([N+](=O)[O-])cc1 | active: 40.9 µM |
| O=[N+]([O-])/C=C/c1ccccc1 | active: 31.1 µM and active: 61.1 µM |
| CCC(C)(c1ccc(O)cc1)c1ccc(O)cc1 | inconclusive [cytotoxic, single point] |
| CCc1cccc(C)c1N(C(=O)CCl)[C@@H](C)COC | inactive |
| COc1ccccc1OC | inactive |
